Source: paper PMC5741900, “CENP-B protects centromere chromatin integrity by facilitating histone deposition via the H3.3-specific chaperone Daxx” (Epigenetics & Chromatin, 2017)

Biological target: T1, FLAG-HA-CENP-B (UniProt P07199 1-599)
T1 construct: CENP-B (centromere protein B); also called pOZ-CENP-B; source: HEp2 cells stably expressing (pOZ expression vector), chromatin fraction of lysate
T1 sequence (looked up): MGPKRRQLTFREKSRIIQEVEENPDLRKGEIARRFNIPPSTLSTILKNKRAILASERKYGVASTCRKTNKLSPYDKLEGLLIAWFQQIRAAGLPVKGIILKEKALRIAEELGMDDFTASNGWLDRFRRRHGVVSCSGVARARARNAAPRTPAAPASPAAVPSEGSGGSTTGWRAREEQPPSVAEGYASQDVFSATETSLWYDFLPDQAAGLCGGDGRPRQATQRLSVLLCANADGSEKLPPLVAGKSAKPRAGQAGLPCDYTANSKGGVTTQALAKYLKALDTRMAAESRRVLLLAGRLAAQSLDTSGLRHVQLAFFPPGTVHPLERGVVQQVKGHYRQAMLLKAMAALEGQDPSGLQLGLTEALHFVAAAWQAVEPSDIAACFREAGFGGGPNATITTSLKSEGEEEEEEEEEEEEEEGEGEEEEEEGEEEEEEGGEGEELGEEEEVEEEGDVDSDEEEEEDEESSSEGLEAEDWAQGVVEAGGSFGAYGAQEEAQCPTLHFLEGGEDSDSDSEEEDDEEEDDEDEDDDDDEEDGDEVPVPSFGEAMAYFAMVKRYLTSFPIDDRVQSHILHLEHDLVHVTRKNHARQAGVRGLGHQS
Test: co-IP; anti-FLAG-M2 magnetic beads on the chromatin fraction of HEp2 cells stably expressing FLAG-HA-CENP-B; blot with Daxx and HA antibodies; also after scrambled, SUMO-1 or SUMO-2 siRNA and MG132 (10 µM, 4 h), densitometry relative to control siRNA
Details: partners not purified

B1: Daxx, endogenous (natural protein, human (endogenous in HEp2))
chain: MATANSIIVLDDDDEDEAAAQPGPSHPLPNAASPGAEAPSSSEPHGARGSSSSGGKKCYKLENEKLFEEFLELCKMQTADHPEVVPFLYNRQQRAHSLFLASAEFCNILSRVLSRARSRPAKLYVYINELCTVLKAHSAKKKLNLAPAATTSNEPSGNNPPTHLSLDPTNAENTASQ[about 200 residues left out]ERKKRRARLQGTSSHSADTPEASLDSGEGPSGMASQGCPSASRAETDDEDDEESDEEEEEEEEEEEEEATDSEEEEDLEQMQEGQEDDEEEDEEEEAAAGKDGDKSPMSSLQISNEKNLEPGKQISRSSGEQQNKGRIVSPSLLSEEPLAPSSIDAESNGEQPEELTLEEESPVSQLFELEIEALPLDTPSSVETDISSSRKQSEEPFTTVLENGAGMVSSTSFNGGVSPHNWGDSGPPCKKSRKEKKQTGSGPLGNSYVERQRSVHEKNGKKICTLPSPPSPLASLAPVADSSTRVDSPSHGLVTSSLCIPSPARLSQTPHSQPPRPGTCKTSVATQCDPEEIIVLSDSD
notes: Daxx, H3.3-specific histone chaperone, detected with Daxx antibodies; also called endogenous Daxx; source: endogenous, HEp2 chromatin fraction of lysate
  Daxx co-IP with CENP-B after SUMO-1 depletion, relative to control siRNA: 0.7 relative to control siRNA
  Daxx co-IP with CENP-B after SUMO-2 depletion, relative to control siRNA: 0.2 relative to control siRNA
